Source: the supplement of paper PMC8728848
The list shows a part of the results.

Key:
Assay in all cases: glycan array binding signal (z-score within array); higher = stronger binding
Settings in all cases: glycan notation: IUPAC condensed, linker removed
[1] = target: Gal(b1-3)GlcNAc(b1-6)GalNAc
Method in brief: (§1)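 Glycan array binding is given as a within-array Z-score, which can be read as non-binding when negative. The arrays, 3228 of them, came from the Consortium for Functional Glycomics database and were retained only where the protein sequence was available. Z-scores were averaged across arrays of the same protein sequence at different concentrations or buffers and across linkers.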

[2] = target: Gal(b1-3)GlcNAc(b1-6)[Gal(b1-3)]GalNAc
Method in brief: as §1

Gal(b1-3)GlcNAc6S = target: Gal(b1-3)GlcNAc6S
Method in brief: as §1

[3] = target: Gal(b1-3)[Fuc(a1-4)]GlcNAc
Method in brief: as §1

[4] = target: Gal(b1-3)[Fuc(a1-4)]GlcNAc(b1-2)Man
Method in brief: as §1

[5] = target: Gal(b1-3)[Fuc(a1-4)]GlcNAc(b1-2)Man(a1-3)[Gal(b1-3)[Fuc(a1-4)]GlcNAc(b1-2)Man(a1-6)]Man(b1-4)GlcNAc(b1-4)[Fuc(a1-6)]GlcNAc
Method in brief: as §1

[6] = target: Gal(b1-3)[Fuc(a1-4)]GlcNAc(b1-3)Gal(b1-3)[Fuc(a1-4)]GlcNAc
Method in brief: as §1

[7] = target: Gal(b1-3)[Fuc(a1-4)]GlcNAc(b1-3)Gal(b1-4)[Fuc(a1-3)]GlcNAc
Method in brief: as §1

[8] = target: Gal(b1-3)[Fuc(a1-4)]GlcNAc(b1-6)GalNAc
Method in brief: as §1

[9] = target: Gal(b1-3)[GlcNAc(b1-6)]GalNAc
Method in brief: as §1

[10] = target: Gal(b1-3)[Neu5Ac(a2-6)]GalNAc
Method in brief: as §1

[11] = target: Gal(b1-3)[Neu5Ac(a2-6)]GlcNAc(b1-4)Gal(b1-4)Glc
Method in brief: as §1

[12] = target: Gal(b1-3)[Neu5Ac(b2-6)]GalNAc
Method in brief: as §1

Gal(b1-4)Gal = target: Gal(b1-4)Gal
Method in brief: as §1

[13] = target: Gal(b1-4)GalNAc(a1-3)[Fuc(a1-2)]Gal(b1-4)GlcNAc
Method in brief: as §1

[14] = target: Gal(b1-4)GalNAc(b1-3)[Fuc(a1-2)]Gal(b1-4)GlcNAc
Method in brief: as §1

Gal(b1-4)Glc = target: Gal(b1-4)Glc
Method in brief: as §1

Gal(b1-4)Glc6S = target: Gal(b1-4)Glc6S
Method in brief: as §1

Gal(b1-4)GlcNAc = target: Gal(b1-4)GlcNAc
Method in brief: as §1

[15] = target: Gal(b1-4)GlcNAc(a1-6)Gal(b1-4)GlcNAc
Method in brief: as §1

Gal(b1-4)GlcNAc(b1-2)Man = target: Gal(b1-4)GlcNAc(b1-2)Man
Method in brief: as §1

[16] = target: Gal(b1-4)GlcNAc(b1-2)Man(a1-3)Man(b1-4)GlcNAc(b1-4)GlcNAc
Method in brief: as §1

[17] = target: Gal(b1-4)GlcNAc(b1-2)Man(a1-3)[Gal(b1-4)GlcNAc(b1-2)Man(a1-6)]Man(b1-4)GlcNAc(b1-4)GlcNAc
Method in brief: as §1

[18] = target: Gal(b1-4)GlcNAc(b1-2)Man(a1-3)[Gal(b1-4)GlcNAc(b1-2)Man(a1-6)]Man(b1-4)GlcNAc(b1-4)[Fuc(a1-6)]GlcNAc
Method in brief: as §1

[19] = target: Gal(b1-4)GlcNAc(b1-2)Man(a1-3)[Gal(b1-4)GlcNAc(b1-2)Man(a1-6)][Gal(b1-4)GlcNAc(b1-4)]Man(b1-4)GlcNAc(b1-4)[Fuc(a1-6)]GlcNAc
Method in brief: as §1

[20] = target: Gal(b1-4)GlcNAc(b1-2)Man(a1-3)[Gal(b1-4)GlcNAc(b1-2)Man(a1-6)][GlcNAc(b1-4)]Man(b1-4)GlcNAc(b1-4)[Fuc(a1-6)]GlcNAc
Method in brief: as §1

[21] = target: Gal(b1-4)GlcNAc(b1-2)Man(a1-3)[GlcNAc(b1-2)Man(a1-6)]Man(b1-4)GlcNAc(b1-4)GlcNAc
Method in brief: as §1

[22] = target: Gal(b1-4)GlcNAc(b1-2)Man(a1-3)[GlcNAc(b1-4)][Gal(b1-4)GlcNAc(b1-2)Man(a1-6)]Man(b1-4)GlcNAc(b1-4)GlcNAc
Method in brief: as §1

[23] = target: Gal(b1-4)GlcNAc(b1-2)Man(a1-3)[Man(a1-6)]Man(b1-4)GlcNAc(b1-4)GlcNAc
Method in brief: as §1

[24] = target: Gal(b1-4)GlcNAc(b1-2)Man(a1-6)Man(b1-4)GlcNAc(b1-4)GlcNAc
Method in brief: as §1

[25] = target: Gal(b1-4)GlcNAc(b1-2)Man(a1-6)[GlcNAc(b1-2)Man(a1-3)]Man(b1-4)GlcNAc(b1-4)GlcNAc
Method in brief: as §1

[26] = target: Gal(b1-4)GlcNAc(b1-2)Man(a1-6)[Man(a1-3)]Man(b1-4)GlcNAc(b1-4)GlcNAc
Method in brief: as §1

[27] = target: Gal(b1-4)GlcNAc(b1-2)[Gal(b1-4)GlcNAc(b1-4)]Man(a1-3)[Gal(b1-4)GlcNAc(b1-2)Man(a1-6)]Man(b1-4)GlcNAc(b1-4)GlcNAc
Method in brief: as §1

[28] = target: Gal(b1-4)GlcNAc(b1-2)[Gal(b1-4)GlcNAc(b1-4)]Man(a1-3)[Gal(b1-4)GlcNAc(b1-2)[Gal(b1-4)GlcNAc(b1-6)]Man(a1-6)]Man(b1-4)GlcNAc(b1-4)GlcNAc
Method in brief: as §1

[29] = target: Gal(b1-4)GlcNAc(b1-2)[Gal(b1-4)GlcNAc(b1-4)]Man(a1-3)[GlcNAc(b1-4)][Gal(b1-4)GlcNAc(b1-2)Man(a1-6)]Man(b1-4)GlcNAc(b1-4)GlcNAc
Method in brief: as §1

[30] = target: Gal(b1-4)GlcNAc(b1-2)[Gal(b1-4)GlcNAc(b1-4)]Man(a1-3)[GlcNAc(b1-4)][Gal(b1-4)GlcNAc(b1-2)[Gal(b1-4)GlcNAc(b1-6)]Man(a1-6)]Man(b1-4)GlcNAc(b1-4)GlcNAc
Method in brief: as §1

[31] = target: Gal(b1-4)GlcNAc(b1-2)[Gal(b1-4)GlcNAc(b1-6)]Man(a1-6)[Gal(b1-4)GlcNAc(b1-2)Man(a1-3)]Man(b1-4)GlcNAc(b1-4)GlcNAc
Method in brief: as §1

[32] = target: Gal(b1-4)GlcNAc(b1-2)[Gal(b1-4)GlcNAc(b1-6)]Man(a1-6)[Gal(b1-4)GlcNAc(b1-2)Man(a1-3)]Man(b1-4)GlcNAc(b1-4)[Fuc(a1-6)]GlcNAc
Method in brief: as §1

[33] = target: Gal(b1-4)GlcNAc(b1-2)[Gal(b1-4)GlcNAc(b1-6)]Man(a1-6)[GlcNAc(b1-4)][Gal(b1-4)GlcNAc(b1-2)Man(a1-3)]Man(b1-4)GlcNAc(b1-4)GlcNAc
Method in brief: as §1

[34] = target: Gal(b1-4)GlcNAc(b1-2)[Gal(b1-4)GlcNAc(b1-6)]Man(a1-6)[GlcNAc(b1-4)][Gal(b1-4)GlcNAc(b1-2)[Gal(b1-4)GlcNAc(b1-4)]Man(a1-3)]Man(b1-4)GlcNAc(b1-4)[Fuc(a1-6)]GlcNAc
Method in brief: as §1

[35] = target: Gal(b1-4)GlcNAc(b1-3)Gal(b1-3)GalNAc
Method in brief: as §1

[36] = target: Gal(b1-4)GlcNAc(b1-3)Gal(b1-3)GlcNAc
Method in brief: as §1

[37] = target: Gal(b1-4)GlcNAc(b1-3)Gal(b1-4)Glc
Method in brief: as §1

[38] = target: Gal(b1-4)GlcNAc(b1-3)Gal(b1-4)GlcNAc
Method in brief: as §1

[39] = target: Gal(b1-4)GlcNAc(b1-3)Gal(b1-4)GlcNAc(b1-2)Man(a1-3)[Gal(b1-4)GlcNAc(b1-3)Gal(b1-4)GlcNAc(b1-2)Man(a1-6)]Man(b1-4)GlcNAc(b1-4)GlcNAc
Method in brief: as §1

B1: SP16664B-bot-474-25-474 (Bacteroides ovatus) (protein)
chain: CEEDIEIGNKIDESSYLASTQLSGLLLDENTNKNSSVIELRNNEYSTNVVFRLSKLPQKGVDVQIAVEESYAAIYNTIHETDFEVFPAANVKIANNGTFVLAPDDKVTPSVKVTLTAFDGMEEDKTYIVPLTVTSSTEGVTFTETSKHMVLLVQDYRNKPNTNKGEDAVQTVLYFEVNDTNPLNALEFLTESGKYFFDHIVLFAANINWDPEKQRVYLANNENVQFLLDNNDKYLQPLRKAGMKIIISILGNHDEAGVAQLSDMGAREFARELAAYCRAYNLDGVAFDDEYSNSPDLSNPWLASPSAYAGSRLMYECKAVMPEKIVSLYNLGNMYSSSLQVIDGIEPGQYCDYAVADYGGAAGPGTGMTLKQCAGMSIELRRGSGNSSESTARSRKEAGYGYYMFFALDPSLYGSQVYRCQSVCKGLYDETLVYPSYYYKKNSTEREAIN
[1]
  glycan array binding signal (z-score): -0.355
[2]
  glycan array binding signal (z-score): -0.087
Gal(b1-3)GlcNAc6S
  glycan array binding signal (z-score): 0.202
[3]
  glycan array binding signal (z-score): -0.27
[4]
  glycan array binding signal (z-score): -0.44
[5]
  glycan array binding signal (z-score): 0.47
[6]
  glycan array binding signal (z-score): -0.485
[7]
  glycan array binding signal (z-score): -0.238
[8]
  glycan array binding signal (z-score): 0.134
[9]
  glycan array binding signal (z-score): -0.351
[10]
  glycan array binding signal (z-score): -0.588
[11]
  glycan array binding signal (z-score): -0.513
[12]
  glycan array binding signal (z-score): -0.124
Gal(b1-4)Gal
  glycan array binding signal (z-score): -0.186
[13]
  glycan array binding signal (z-score): -0.481
[14]
  glycan array binding signal (z-score): -0.546
Gal(b1-4)Glc
  glycan array binding signal (z-score): -0.328
Gal(b1-4)Glc6S
  glycan array binding signal (z-score): 0.2
Gal(b1-4)GlcNAc
  glycan array binding signal (z-score): -0.243
[15]
  glycan array binding signal (z-score): -0.245
Gal(b1-4)GlcNAc(b1-2)Man
  glycan array binding signal (z-score): -0.192
[16]
  glycan array binding signal (z-score): 0.323
[17]
  glycan array binding signal (z-score): -0.21
[18]
  glycan array binding signal (z-score): 0.12
[19]
  glycan array binding signal (z-score): -0.39
[20]
  glycan array binding signal (z-score): -0.582
[21]
  glycan array binding signal (z-score): -0.201
[22]
  glycan array binding signal (z-score): -0.379
[23]
  glycan array binding signal (z-score): -0.019
[24]
  glycan array binding signal (z-score): -0.486
[25]
  glycan array binding signal (z-score): -0.164
[26]
  glycan array binding signal (z-score): -0.21
[27]
  glycan array binding signal (z-score): -0.452
[28]
  glycan array binding signal (z-score): 0.559
[29]
  glycan array binding signal (z-score): -0.357
[30]
  glycan array binding signal (z-score): 0.296
[31]
  glycan array binding signal (z-score): -0.037
[32]
  glycan array binding signal (z-score): -0.218
[33]
  glycan array binding signal (z-score): -0.012
[34]
  glycan array binding signal (z-score): 0.497
[35]
  glycan array binding signal (z-score): -0.153
[36]
  glycan array binding signal (z-score): -0.433
[37]
  glycan array binding signal (z-score): -0.36
[38]
  glycan array binding signal (z-score): 0.066
[39]
  glycan array binding signal (z-score): 1.81
